Each structure is given as a SMILES string. In all, about 310,000 compounds went through this assay and about 2,200 (0.71%) showed an effect of 50% or more. Effects have a minus sign here. The list shows a part of the results.

The target in this assay is human ether-à-go-go-related gene (hERG) potassium channel (human, UniProt Q12809). Nature of the assay: primary screen, population patch clamp on CHO cells stably expressing hERG.
human ether-à-go-go-related gene (hERG) potassium channel, sequence (Q12809 whole entry, looked up): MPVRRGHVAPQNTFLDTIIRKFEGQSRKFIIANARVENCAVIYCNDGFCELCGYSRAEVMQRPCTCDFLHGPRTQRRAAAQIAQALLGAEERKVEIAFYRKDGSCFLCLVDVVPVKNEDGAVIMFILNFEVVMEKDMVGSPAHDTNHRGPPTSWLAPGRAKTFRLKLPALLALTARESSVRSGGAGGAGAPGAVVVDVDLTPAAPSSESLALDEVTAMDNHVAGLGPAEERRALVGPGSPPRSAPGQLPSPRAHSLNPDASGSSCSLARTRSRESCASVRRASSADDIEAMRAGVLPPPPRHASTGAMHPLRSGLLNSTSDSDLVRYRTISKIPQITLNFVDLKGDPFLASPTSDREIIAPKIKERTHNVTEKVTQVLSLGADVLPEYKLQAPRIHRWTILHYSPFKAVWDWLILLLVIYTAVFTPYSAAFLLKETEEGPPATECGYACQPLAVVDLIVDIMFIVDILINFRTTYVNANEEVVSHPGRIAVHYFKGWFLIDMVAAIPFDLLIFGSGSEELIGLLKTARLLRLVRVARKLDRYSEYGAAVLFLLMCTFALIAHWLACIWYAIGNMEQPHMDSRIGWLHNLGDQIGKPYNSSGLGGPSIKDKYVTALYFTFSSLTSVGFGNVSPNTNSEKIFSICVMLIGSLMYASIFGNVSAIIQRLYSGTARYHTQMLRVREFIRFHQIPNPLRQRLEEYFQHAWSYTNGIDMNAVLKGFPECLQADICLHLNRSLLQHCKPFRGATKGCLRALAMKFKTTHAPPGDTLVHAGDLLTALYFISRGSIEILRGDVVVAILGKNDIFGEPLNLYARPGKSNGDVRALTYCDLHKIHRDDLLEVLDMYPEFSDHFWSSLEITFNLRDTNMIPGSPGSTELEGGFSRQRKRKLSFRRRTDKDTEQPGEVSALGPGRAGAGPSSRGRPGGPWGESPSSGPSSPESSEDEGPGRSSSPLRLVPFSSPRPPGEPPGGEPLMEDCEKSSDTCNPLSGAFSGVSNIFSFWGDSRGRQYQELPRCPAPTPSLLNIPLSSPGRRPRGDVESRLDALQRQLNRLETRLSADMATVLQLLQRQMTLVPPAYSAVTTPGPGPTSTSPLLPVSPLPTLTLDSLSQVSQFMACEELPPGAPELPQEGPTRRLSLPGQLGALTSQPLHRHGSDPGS
With `O=C(O)c1cc(S(=O)(=O)Nc2cc(Cl)ccc2Oc2ccccc2)ccc1O`, the “hERG current change (%, negative = inhibition) at 1uM” value stood at 19.7%.
As for `O=C(NCc1cccnc1)c1cccc(-c2cc3ccccc3oc2=O)c1`, the figure is -12.7%.
Regarding `CC(Sc1nc2ncc(Cl)cc2[nH]1)C(=O)Nc1ccc(C(N)=O)cc1` (stereo not shown), the “hERG current change (%, negative = inhibition) at 1uM” value stood at 10.2%.
As for `Cn1c2c(c(=O)[nH]c1=O)C(NC(=O)c1ccco1)(C(F)(F)F)C(=O)N2` (stereo not shown), the figure is 12.6%.
On to `Cn1ncc2nc[nH]c(=O)c21`, for which the “hERG current change (%, negative = inhibition) at 1uM” value turned out to be 9.82%.
As for `Cn1cc(CNC(=O)C2c3ccccc3Oc3ccccc32)cn1`, the figure is 10.9%; as for `c1ccc(Oc2cc(-n3cccn3)ncn2)cc1`, -6.74%.
For `Cc1cc(C)c2c3c(sc2n1)C(c1ccccc1)C(C#N)=C(N)O3` (stereo not shown), the “hERG current change (%, negative = inhibition) at 1uM” value is 1.32%.
As for `Cc1ccc(NC(=O)/C(C#N)=C/c2ccc(C)s2)c(C)c1`, the figure is 14.2%; as for `C=CCn1c(SCC(=O)N2CCc3ccccc3C2)nc2sc(C)cc2c1=O`, -2.33%.
As for `C/[N+]([O-])=C\c1ccc([N+](=O)[O-])o1`, the figure is 15.3%; as for `COC(=O)C1=NNC(C(=O)c2ccco2)C1c1ccc(OC)cc1` (stereo not shown), 11.3%; as for `CCN(CC)CCNc1nc2c(c(=O)[nH]c(=O)n2C)n1CCCc1ccccc1`, 0.0626%.
In the case of `Clc1ccc(/C=N/c2c(-c3ccc(Cl)cc3)nc3n2CCS3)cc1`, the “hERG current change (%, negative = inhibition) at 1uM” value came to 4.27%.
As for `O=Cc1ccccc1OCc1ccc2c(c1)OCO2`, the figure is 13.4%; as for `CC(C)Nc1cc(C(C)(C)C)nc2c(-c3ccccc3)cnn12`, 7.4%; as for `CC1(C)CC(CC(=O)NC(=S)Nc2ccc([N+](=O)[O-])cc2)C(=O)O1` (stereo not shown), 6.95%.
On to `Cc1ccccc1CCN1CCCC(CN(C)C(=O)C(=O)c2ccco2)C1` (stereo not shown), for which the “hERG current change (%, negative = inhibition) at 1uM” value is given as -17.7%.
For `O=C(O)CC(CC(=O)O)(C(=O)O)c1ccccc1`, the “hERG current change (%, negative = inhibition) at 1uM” value is on record as 14.6%.
As for `O=C(CN1CCN(Cc2ccccc2)CC1)N/N=C/c1ccccc1F`, the figure is 3.96%.
As for `O=C(CSCc1c(Cl)cccc1Cl)Nc1ccc2c(c1)OCCO2`, the figure is -3.39%; as for `COc1cc(OC)c(-c2nc(-c3ccncc3)no2)cc1OC`, 16.7%.
As for `Cc1ccc(S(=O)(=O)CCNC(=O)Cc2ccccc2)cc1`, the figure is 8.96%.
With `Cc1ccc(Cn2nnc3c(=O)n(CC(=O)NCc4ccco4)cnc32)cc1`, the “hERG current change (%, negative = inhibition) at 1uM” value is reported as 6.11%.
On to `C=C(C)CN(Cc1ccccc1)C(=S)Nc1ccccc1`, for which the “hERG current change (%, negative = inhibition) at 1uM” value is 13.7%.
As for `C/C(=N\NC(=O)CCCNc1ccc(C)cc1)c1ccccn1`, the figure is -8.17%; as for `Clc1ccc(OCCOCCOc2cccc3cccnc23)c(Br)c1`, 15.3%; as for `CC(C)CC(NC(=O)C1CCCCC1)C(=O)N1CCC2(CC1)OCCO2` (stereo not shown), -12.4%.
As to `CC(C)(C)N1C(=O)[C@H]2[C@@H](c3ccc(Br)cc3)N3C(=O)N(c4ccc(Br)cc4)C(=O)[C@@]3(Cc3ccccc3)[C@H]2C1=O`, the “hERG current change (%, negative = inhibition) at 1uM” value is 6.02%.
As for `CCN(CC)C(=O)c1cnn(-c2ccccc2)c1NC(=O)c1cccc(F)c1`, the figure is 9.12%; as for `NC(=O)CC(NC(=O)c1ccc(Br)cc1)c1ccc(N2CCCCCC2)c([N+](=O)[O-])c1` (stereo not shown), 9.48%.
As for `C=C1N2CCC(CC2)C1(O)c1ccc(C)c(C)c1.Cl` (stereo not shown), the figure is 15.7%.
As for `N#Cc1nccnc1N1CCN(C(=O)Nc2ccccc2)CC1`, the figure is 7.98%; as for `COc1cc(C(=O)Nc2cc(-c3cn4cccnc4n3)ccc2C)cc(OC)c1OC`, 0.852%.
For `Cc1ccnc(SC2CC(=O)N(c3ccc(F)cc3)C2=O)n1` (stereo not shown), the “hERG current change (%, negative = inhibition) at 1uM” value came to 13%.
Turning to `COC(=O)c1ccc(NS(=O)(=O)c2ccc(OC)cc2)cc1`, the “hERG current change (%, negative = inhibition) at 1uM” value stood at 3.2%.
As for `CCCCN(C)CCNC(=O)c1cc2c(-c3ccccc3F)nn(C)c2s1`, the figure is 7.26%; as for `O=C(CN1C(=O)CCC1=O)NCC12CC3CC(CC(C3)C1)C2`, -0.0272%; as for `CCc1ccccc1NC(=S)N(CCN1CCOCC1)Cc1ccccc1F`, 18.7%.
As for `Cc1ccc(NC(=O)c2nsc(Cl)c2Cl)cc1`, the figure is 4.07%; as for `CCCSc1cc(NCCOC(C)=O)c([N+](=O)[O-])c2nonc12`, -10.7%.
With `O=[N+]([O-])c1c(Nc2ccccc2O)ccc2nonc12`, the “hERG current change (%, negative = inhibition) at 1uM” value was 3.97%.
On to `O=C(Nc1ccc2c(c1)CCC2)c1cccs1`, for which the “hERG current change (%, negative = inhibition) at 1uM” value came out at 11.4%.
As for `Cc1cccc(N2CCN(CC(=O)Nc3nccs3)CC2)c1C`, the figure is -3.89%; as for `COc1cccc(C(=O)NNC(=O)CCc2ccccc2)c1`, 10.1%; as for `O=C(CSc1n[nH]c(-c2cccs2)n1)N1CCCCC1`, 7.23%.
As for `c1ccc(-c2nccc(-c3ccc(-n4cnc5ccccc54)cc3)n2)cc1`, the figure is 9.86%.
As for `Cc1ccc(C2C(C#N)=C(N)SC(N)=C2C#N)c(C)c1`, the figure is 14.3%; as for `CC1CCN(C(=O)CCc2ccc(S(=O)(=O)NC(C)(C)C)cc2)CC1`, -0.657%.
In the case of `Cc1cccc(-n2ncc3c2CCCC3NC(=O)C2(C(N)=O)CC2)c1C` (stereo not shown), the “hERG current change (%, negative = inhibition) at 1uM” value was 10.7%.
As for `CN1C(=O)C(CCC(=O)O)NC1=S` (stereo not shown), the figure is 10.1%; as for `O=C1C(Cl)=C(N2CCCC2)C(=O)N1c1ccccc1F`, 14.7%.
As for `CCOC(=O)c1cn(CC(=O)Nc2ccc(C(C)C)cc2)nn1`, the figure is 8.55%; as for `CCOc1ccccc1-n1c(SCC(=O)NC2CCCC2)nnc1-c1ccoc1C`, -8.33%; as for `Cn1cc(CN2CCCC(C(=O)Nc3cccc(-n4cccn4)c3)C2)cn1` (stereo not shown), 8.76%.
As for `CCOc1ccc(CCNC(=O)COC(=O)c2ccc(Br)o2)cc1OCC`, the figure is 12.8%; as for `COc1ccc2[nH]c3c(c2c1)CCC/C3=N\N`, 15.1%; as for `Cc1ccc(CCS(=O)(=O)c2ccc(C(C)(C)C)cc2)cn1`, 19.6%.
`COc1ccc(-c2cc(=O)oc3cc(OCc4nn[nH]n4)ccc23)cc1`: the “hERG current change (%, negative = inhibition) at 1uM” value was determined as 17%.
As for `COc1ccc(N2CC(C(=O)Nc3cccc(C)n3)CC2=O)cc1` (stereo not shown), the figure is 6.67%.
In the case of `CC(C)(C)OC(=O)NNc1c2ccccc2nc2ccccc12`, the “hERG current change (%, negative = inhibition) at 1uM” value turned out to be 16.9%.
Consider `COc1cc(/C=C(\C#N)C(=O)NC(C)C)ccc1OCc1ccc(C(=O)O)cc1`, for which the “hERG current change (%, negative = inhibition) at 1uM” value is 9.84%.
As for `O=C(c1ccc2c(c1)OCO2)N1CCCc2ccccc21`, the figure is 17.5%.
As for `O=C(Cn1cnc2cc(Cl)ccc2c1=O)Nc1ccc2c(c1)OCO2`, the figure is 10.3%; as for `N#CC1=C(N)Oc2n[nH]c(-c3ccccc3)c2C1c1cccc(OC(=O)N2CCOCC2)c1` (stereo not shown), 8.55%; as for `Cn1c(=O)n(C)c2cc(/C=N/NC(=O)c3ccncc3)ccc21`, 13.2%.
As for `CCOCc1nnc(NC(=O)CS(=O)(=O)c2ccc(C)cc2)s1`, the figure is 12.2%; as for `CC(=O)N(C)CC#CCN1CCC(O)CC1`, 12.3%; as for `CCOC(=O)CCc1c(C)c2c(C)nn(-c3ccccc3)c2[nH]c1=O`, 0.469%.
Turning to `CN1CCN(C(=O)c2cc(COc3ccc(F)cc3Cl)on2)CC1c1ccccc1` (stereo not shown), the “hERG current change (%, negative = inhibition) at 1uM” value is 7.28%.
As for `COc1ccc(C(C(=O)NCC2CCCO2)N(C(=O)Cn2nnc3ccccc32)c2ccc(NC(C)=O)cc2)cc1` (stereo not shown), the figure is 12%.
As for `CCOc1ccc(C(=O)NCC2OCCc3ccccc32)cc1` (stereo not shown), the figure is 3.68%; as for `O=C(Nc1ccccc1)c1cnc2ccccc2n1`, 4.89%.
In the case of `O=c1c2cc3c(=O)n(-c4ccccc4O)c(=O)c3cc2c(=O)n1-c1ccccc1O`, the “hERG current change (%, negative = inhibition) at 1uM” value was found to be 6.38%.
Regarding `Cc1c(C)c2c(OCC(=O)N[C@@H](Cc3ccccc3)C(=O)O)cc3c(c2oc1=O)CCC(C)(C)O3`, the “hERG current change (%, negative = inhibition) at 1uM” value was found to be 10.5%.
As for `CCOCCCNC(=O)c1cc2c(=O)n3cccc(C)c3nc2n1C`, the figure is 17.3%; as for `COc1ccccc1NC(=O)CCSc1ccc(C)cc1`, 11.6%.
As for `C=CCNC(=O)NC(=O)c1csc([N+](=O)[O-])c1`, the figure is 8.85%; as for `N#CCSc1ncnc2sc3c(c12)CCC3`, 6.9%; as for `O=C(NCCc1nc2ccccc2[nH]1)c1cc([N+](=O)[O-])cc([N+](=O)[O-])c1`, 0.372%.
As for `O=C(CSC1=NCCS1)N1CCN(c2ccccc2)CC1`, the figure is -2.13%; as for `O=C(Cn1ncc2c([nH]c3ccccc32)c1=O)N1CCN(c2ccccn2)CC1`, 17.9%.
On to `COc1ccccc1-c1nnc2sc(-c3cnccn3)nn12`, for which the “hERG current change (%, negative = inhibition) at 1uM” value turned out to be 8.35%.
As for `CC(=O)c1cccc(NC(=O)c2cc(C)no2)c1`, the figure is 13.1%; as for `CCCOc1cccc(-c2nn(-c3ccccc3)cc2/C=C(\C#N)C(=O)NCCCn2ccnc2)c1`, 13.6%; as for `C=CCn1c(CSCc2ccccc2)nnc1SCC(=O)NCc1ccccc1`, -9.04%.
As for `CCCN(CC(=O)Nc1ccc(C(C)=O)cc1)CC(=O)Nc1ccccc1C`, the figure is 20%; as for `Cc1ccc(NCc2nnc3n2CCCCC3)cc1`, 13.6%.
For the molecule `FC(F)(F)c1cc(-c2ccccc2)nc(NC2CCCC2)n1`, the “hERG current change (%, negative = inhibition) at 1uM” value was found to be 17.3%.
In the case of `COc1ccc(N2CCN(C(=O)CSc3nc4ccccc4c(=O)[nH]3)CC2)cc1`, the “hERG current change (%, negative = inhibition) at 1uM” value was 5.08%.
As for `C=CCN(C)CC/C=C1\c2ccccc2CSc2ccccc21.Cl`, the figure is -2.38%.

The values above are taken from PMC4336329 (PLoS ONE, 2015).
